According to publication PMC6919601, “Identification of Plasmodium dipeptidyl aminopeptidase allosteric inhibitors by high throughput screening” (PLoS ONE, 2019):
Hit rate of the full screen: of about 110,000 compounds, about 230 (0.21%) showed an effect of 50% or more. The list shows a part of the results.

Molecular target: DPAP1 (Plasmodium falciparum, UniProt Q8IIJ9)
Experiment: primary screen, percent inhibition; read by cleavage of a fluorogenic dipeptide substrate; higher = more effect of the substance
Design: species or system P. falciparum D10 trophozoite lysates; single well
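Further: 30 min substrate incubation versus DMSO and 10 µM JCP410 controls.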

Chain of DPAP1 (Q8IIJ9 whole entry, looked up): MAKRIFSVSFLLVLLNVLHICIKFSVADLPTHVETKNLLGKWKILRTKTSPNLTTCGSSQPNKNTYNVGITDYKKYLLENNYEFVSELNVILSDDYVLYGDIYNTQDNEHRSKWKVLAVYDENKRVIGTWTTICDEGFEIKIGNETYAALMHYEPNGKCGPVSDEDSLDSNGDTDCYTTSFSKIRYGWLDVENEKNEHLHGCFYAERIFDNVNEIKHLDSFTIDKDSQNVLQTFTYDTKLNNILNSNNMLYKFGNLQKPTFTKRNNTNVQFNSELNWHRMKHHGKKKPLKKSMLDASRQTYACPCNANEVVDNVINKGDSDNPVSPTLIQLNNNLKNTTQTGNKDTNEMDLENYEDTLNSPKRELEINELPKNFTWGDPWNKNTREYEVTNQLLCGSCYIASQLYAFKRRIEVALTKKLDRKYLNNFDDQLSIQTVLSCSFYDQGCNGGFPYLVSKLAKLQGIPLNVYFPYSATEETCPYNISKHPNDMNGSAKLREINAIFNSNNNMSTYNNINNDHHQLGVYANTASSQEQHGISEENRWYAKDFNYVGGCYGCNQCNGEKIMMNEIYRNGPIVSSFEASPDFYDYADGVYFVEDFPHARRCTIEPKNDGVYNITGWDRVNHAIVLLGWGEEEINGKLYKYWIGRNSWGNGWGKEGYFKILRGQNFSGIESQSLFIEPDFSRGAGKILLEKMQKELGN

Row | SMILES | % Inhibition @ 10 uM
1 | COc1ccc(-c2cc(C(=O)O)c3c(-c4ccc(F)cc4)[nH]nc3n2)cc1Br | -3.27%
2 | O=c1c2ccccc2nc2c3ccccc3c(N3CCCCCC3)nn12 | 8.74%
3 | CCCCCNC(=O)Nc1cccc(Cl)c1 | -0.192%
4 | COc1ccccc1/C=C1/N=C(c2cccc3ccccc23)OC1=O | -3.44%
5 | CC(C)(C)c1ccc(C(=O)Nc2c(O)oc3ccccc3c2=O)cc1 | -2.12%
6 | Cn1c(Cl)c[n+](C)c1C(O)c1ccccc1 (centres unmarked) | -0.615%
7 | c1cncc(-c2nc3c4ccccc4nc(NCC4CCCO4)n3n2)c1 (centres unmarked) | -2.42%
8 | CCCOc1ccc(C(N)CC(=O)O)cc1OC (centres unmarked) | 1.62%
9 | Cc1nn(CC(=O)NC2CCN(Cc3ccccc3)CC2)c(=O)c2nn(-c3ccccc3)c(C)c12 | -3.81%
10 | O=C1c2cccc(Cl)c2C(=O)N1c1cccc(Cl)c1 | -6.59%
11 | COc1cccc(-c2noc(CCC(=O)N3CCN(c4ccc(N5CCOCC5)nn4)CC3)n2)c1 | -1.7%
12 | CC1(C)CC(=O)C2=C(C1)OC(N)=C(C#N)C2c1ccc(COc2cccc(C(F)(F)F)c2)o1 (centres unmarked) | -3.77%
13 | O=C(NCCc1cccs1)C1CCN(C(=O)c2ccc(-n3ccc4ccccc43)s2)CC1 | 7.43%
14 | CCOC(=O)c1c(C)n(CC(C)C)c2ccc(O)cc12 | 0.51%
15 | O=C(CCNS(=O)(=O)c1ccc(Br)s1)N1CCc2ccccc2C1 | -5.52%
16 | Cc1cccc(CCNC(=O)Cn2ncc3c4ccccc4nc-3c2O)c1 | -3.73%
17 | CC1CCCN(S(=O)(=O)c2cccc3nsnc23)C1 (centres unmarked) | 2.06%
18 | CCOc1ccc(C(=O)Nc2cc(C)cc(C)n2)cc1 | 5.08%
19 | CSc1ccccc1NC(=O)CN(C)S(=O)(=O)c1ccc(C)cc1 | -5.01%
20 | OCCN1CCN(Cc2c(Cl)cccc2Cl)CC1 | -0.505%
21 | O=C(O)CC(c1ccc(Cl)cc1)n1cnnn1 (centres unmarked) | -0.403%

Row | SMILES | % Inhibition @ 10 uM
22 | COCCCNC(=O)CCc1nnc2n(Cc3ccc(F)cc3)c(=O)c3ccccc3n12 | 2.6%
23 | COc1ccc(S(=O)(=O)Nc2cccc(Cl)c2C)cc1 | 2.22%
24 | COc1ccc(CC(C)NCc2ccco2)cc1 (centres unmarked) | 0.472%
25 | O=C(NCCCN1CCCC1)C(Cc1ccccc1)N1Cc2ccccc2C1=O (centres unmarked) | 1.6%
26 | COc1ccc(-c2cc(C(=O)N3N=C(C(F)F)CC3(O)C(F)F)c3ccccc3n2)c(OC)c1 (centres unmarked) | 5.61%
27 | Cc1cc(C)nc(Oc2ccc(Br)cc2Br)n1 | 6.51%
28 | CCCCCNC(=O)C(C)Oc1ccc(Cl)cc1C (centres unmarked) | 1.03%
29 | C=CCOC(=O)C1=C(C)N(CC)C(=O)NC1c1ccc(Br)cc1 (centres unmarked) | -4.5%
30 | COc1cccc(NC(=O)CNS(=O)(=O)c2ccc(Cl)cc2)c1 | -1.98%
31 | CCN(CC)CC(O)Cn1c2c(c3cc(C)ccc31)CCCC2=O (centres unmarked) | -3.75%
32 | O=C1N/C(=C/c2ccc(-c3ccccc3)o2)C(=O)N1Cc1ccccc1F | 1.63%
33 | COC(=O)C1=C(C)OC(N)=C(C#N)C1c1ccc(Cl)cc1 (centres unmarked) | 5.09%
34 | COc1ccc(S(=O)(=O)/N=C2/C(C)=CC(=O)C(S(=O)(=O)c3ccccc3)=C2C)cc1 | 8.01%
35 | COCc1[nH]nc2c1C1(CCN(C(=O)c3ccccc3)CC1)C(C#N)=C(N)O2 | 0.628%
36 | CC(C)C[C@H](NC(=O)OCc1ccccc1)C(=O)NC(C#N)c1cccnc1 (some centres unmarked) | 3.01%
37 | CCCn1c(C(C)NC(=O)c2cccc(C)c2)nc2ccccc21 (centres unmarked) | 18.5%
38 | CC(C)C[C@H](NC(=O)OCc1ccccc1)C(=O)NNC(=O)c1csc([C@H](CC(C)C)NC(=O)OCc2ccccc2)n1 | 0.744%
39 | CCOC(=O)c1cc(-c2ccc(C)cc2)n(CCC(=O)NCc2ccc(F)cc2)c1C | 0.0579%
40 | CNc1cc(C)c(C#N)c2nc3ccccc3n12 | 4.26%
41 | COc1ccc2c(c1)CC(N1CCN(CCCO)CC1)c1cc(SC)ccc1S2 (centres unmarked) | -10.5%
42 | O=c1[nH]c2ccccc2c(=O)n1CCc1ccccc1 | -5.54%

Row | SMILES | % Inhibition @ 10 uM
43 | CCOc1ccc(C2C(C#N)=C(N)OC3=C2C(=O)CCC3)cc1OCC (centres unmarked) | -0.941%
44 | N#CC1=C(N)N(c2cccnc2Cl)C2=C(C(=O)CCC2)C1c1cc(Cn2cncn2)cs1 (centres unmarked) | 4.31%
45 | O=C(CN1C(=O)c2ccccc2S1(=O)=O)Nc1cc(Cl)ccc1Cl | -0.46%
46 | N#CCSc1nc2ccccc2c(=O)n1CC1CCCC1 | -3.19%
47 | CCCCN(CCCC)c1c(NC2CCN(C(=O)OCC)CC2)c(=O)c1=O | 3.54%
48 | CCOc1cccc(N2C(=O)CC(N3CCN(c4ccc(OC)cc4)CC3)C2=O)c1 (centres unmarked) | -2.8%
49 | O=C(NCCCN1CCc2ccccc2C1)C1CCN(c2ncnc3c2nc2n3CCCCC2)CC1 | 3.05%
50 | COc1ccc(CN2CCN(c3cc(C)c(C#N)c4nc5ccccc5n34)CC2)cc1 | -6.95%
51 | O=C1CC(c2ccccc2Cl)C2=C(CC(c3cccs3)CC2=O)N1 (centres unmarked) | 5.86%
52 | C=CCn1c(SCCCCCC)nc2c1c(=O)[nH]c(=O)n2C | -4.64%
53 | CC1=C(C(=O)Nc2ccc(F)cc2F)C(c2cccnc2)C2=C(O)CC(C)(C)CC2=N1 (centres unmarked) | -3.69%
54 | O=C(/C=C/c1ccccc1)Nc1nnc(S(=O)(=O)N2CCOCC2)s1 | 1.68%
55 | COCCN1C(=O)c2ccccc2C(C(=O)NC2CCCc3ccccc32)C1c1cccs1 (centres unmarked) | 1.09%
56 | CC(C)(C)SCCNC(=O)c1ccc(CN2CCc3ccccc3C2)cc1 | -0.0626%
57 | Cc1ccc(Cn2nnc3c(O)nc(C4CCN(S(=O)(=O)c5cc(C)ccc5C)CC4)nc32)cc1 | -4.07%
58 | COc1ccccc1N1CCN(C(=O)c2ccc(C)c(C)c2)CC1 | -5.13%
59 | c1ccc(CNC2=Nc3ccccc3CCC2)cc1 | 1.24%
60 | NC(=O)COc1ccccc1/C=C1/SC(=O)N(CC(=O)N2CCc3ccccc3C2)C1=O | 6.18%
61 | Cc1c(C(=O)Nc2ccccc2C(N)=O)cnn1C | 1.67%
62 | CCN(Cc1ccccc1)C(=O)Cn1c(=O)cc(C)c2c(C)nn(-c3ccc(C)cc3)c21 | 0.762%
